Measured values: PubChem BioAssay AID1671188 (National Center for Advancing Translational Sciences (NCATS), 2021)
Out of some 100,000 compounds screened, about 250 (0.25%) were called active. This list was built around the results that the source calls inconclusive (neither active nor inactive); the mix of calls is not that of the screen. Calls follow the shape of the dose curve; as a rule, active = well fitted inhibition curve with a large enough effect; inconclusive = small, poorly fitted or top-dose-only effect; inactive = flat fitted curve, though single readings scatter. Potencies of inconclusive entries are left out as doubtful fits.

target: Alanine aminotransferase 2 (Homo sapiens) (UniProt Q8TD30); assay: Primary qHTS assay for inhibitors of Glutamate pyruvate transaminase 2 (GPT2); conditions: Recombinant GPT2, coupled pyruvate oxidase/HRP Amplex Red fluorescence; activity change, negative = inhibition: at 57.7 µM (top of the series) unless noted; series mostly up to 57.7 µM; also: nearly all actives have a fitted effect of over 60% in size
UniProt Q8TD30, sequence (Q8TD30 whole entry, looked up): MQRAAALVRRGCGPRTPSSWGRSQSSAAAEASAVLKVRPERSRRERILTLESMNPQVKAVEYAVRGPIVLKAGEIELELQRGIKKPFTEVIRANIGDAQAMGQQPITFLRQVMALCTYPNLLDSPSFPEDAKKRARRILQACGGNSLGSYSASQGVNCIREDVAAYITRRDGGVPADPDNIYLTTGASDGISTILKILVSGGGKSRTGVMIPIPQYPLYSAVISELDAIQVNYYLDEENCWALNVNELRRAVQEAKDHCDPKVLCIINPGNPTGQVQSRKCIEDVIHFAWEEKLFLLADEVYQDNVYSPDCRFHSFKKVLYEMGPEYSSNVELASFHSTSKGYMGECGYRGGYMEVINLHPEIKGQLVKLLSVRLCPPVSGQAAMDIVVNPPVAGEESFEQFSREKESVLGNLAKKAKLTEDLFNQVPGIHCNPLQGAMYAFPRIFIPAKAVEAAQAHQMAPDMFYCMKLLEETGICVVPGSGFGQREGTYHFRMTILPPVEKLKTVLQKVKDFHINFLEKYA
Protocol: Assay Provider: Zhenghe John Wang Ph.D.
Case Western Reserve University, Cleveland OH
Glutamate pyruvate transaminase 2 (GPT2) catalyzes the reversible transamination of glutamate and pyruvate to provide a-ketoglutarate and alanine. We have optimized an assay for GPT2 enzymatic activity that couples pyruvate formation to detection of fluorescence using an established pyruvate oxidase/horseradish peroxidase / Amplex Red system.
Screening conditions were 250uM a-KG, 2mM L-alanine, and 10ng/uL GPT2 in […] of solution; 10uL of Amplex reaction mix (outlined below) were added so that final concentrations of Amplex reagents in 50uL were 0.2mM ThPP, 0.2U/mL PO and HRP, and 50uM Amplex.
NOTE: The volume of GPT2 in the system depends on the activity of it. The activity is different every batch. You need to test the activity before the assay. For full plate assay with automation, plate 20uL of GPT2 buffer to pin into, then add 10uL of GPT2 dilution followed immediately by 10uL of substrate dilution. 2 Columns of the plate were devoted to GPT2 buffer ([…] PH7.5, 0.0001% Tween) + 50uM AOA (known GPT2 inhibitor) to serve as a positive control. Complete the assay as normal. Amplex-red buffer: […] PH7.5, 1 mM EDTA, 1 mM MgCl2.
1. Combine a-KG and L-alanine at desired concentrations and incubate for at least 10 minutes at 37C. Stocks of L-alanine and a-KG are diluted in distilled water. However, the stocks were diluted in GPT2 buffer for the assay.
2. Prepare GPT2 dilution at the desired concentration in GPT2 buffer.
3. Plate 40uL of GPT2 dilution with 40uL of substrate dilution and let incubate for 30 minutes at room temperature.
4. Add 20uL of Amplex reaction mix prepared as follows: 1.5uL 200U/mL Horseradish Peroxidase, 200mM Thiamine Pyrophosphate, 200U/mL Pyruvate Oxidase; 7.5uL 10mM Amplex Red; 288uL Amplex Buffer.
5. Incubate for 30 minutes at room temperature in the dark, then image using AM_Amplex_Fluorescence on plate reader nearest the window.
% is scaled to controls: 0 for no effect and ±100 for the full control effect; potency is read from the fitted curve at half-maximal effect; tags tell the direction and shape of the fitted curve.

SMILES	activity change, negative = inhibition	Potency	outcome
COc1cccc(Nc2ncc3c(n2)C(C)(C(=O)NCCCn2ccnc2)CC3)c1 (centres undefined)	inactive: 0.0059% [at 88.5 µM]	–	–
O=C(c1ccccc1)N1CCN(c2nccc(Nc3ccccc3Cl)n2)CC1	inactive: -9.42%	–	–
CC1(C)CNC(=O)c2nc(CCSCc3ccco3)[nH]c2C1	inactive: 0.395%	–	–
O=C(NCCCc1ccccc1)c1cc(-c2ccccc2)c2nncn2n1	inactive: -3.13%	–	–
CN1C[C@@H](NC(=O)c2ccccn2)C[C@H]1c1nc(-c2ccc(Cl)cc2)no1	–	inconclusive [inhibitor, single point]	–
O=C([C@@H]1C[C@H](Oc2ccccc2)CN1C(=O)C1CCCC1)N1CCCC1	–	inconclusive [inhibitor, single point]	–
CCc1nc2c(c(-c3ccc(OC)cc3)n1)CCN(C(=O)c1ccccc1F)CC2	–	–	inactive
COc1ccc(-c2cc(N3CCCC(NC(=O)c4cc(OC)c(OC)c(OC)c4)C3)n[nH]2)cc1 (centres undefined)	–	inconclusive [inhibitor, single point]	–
O=C(/C=C/c1ccccc1)OCc1ccccc1	–	inconclusive [inhibitor, single point]	–
O=C(c1nc2cccnc2n(Cc2ccccc2)c1=O)N1CCC(c2ccccc2)CC1	inactive: -12.6%	–	–
Cc1nc2n(c1C(=O)NCCc1ccccc1)CCC(Nc1cccnc1)C2 (centres undefined)	–	inconclusive [inhibitor, partial curve, poor fit]	–
c1ccc(Nc2cnc3ccc(N4CCOCC4)nn23)cc1	–	inconclusive [inhibitor, single point]	–
CN1CC(=O)N(c2cccnc2)Cc2c1ncnc2N1CCC(c2ccccc2)CC1	–	–	inactive
O=C1NCCCCCCN(Cc2ccncc2)[C@@H]2CN(S(=O)(=O)Cc3cccc(F)c3)CC[C@H]12	inactive: -6.5%	–	–
CC1(CCCCc2ccccc2)COc2ccc(C(=O)N3CCOCC3)cc2N1 (centres undefined)	–	inconclusive [inhibitor, single point]	–
O=C(Nc1cccc(Cl)c1)C1CN(c2ccnc3ccnn23)C1	–	inconclusive [inhibitor, single point]	–
COCCN1C(=O)CO[C@H]2CN(C3CCN(C(C)=O)CC3)C[C@H]21	–	inconclusive [inhibitor, single point]	–

SMILES	activity change, negative = inhibition	Potency	outcome
C=CCc1ccccc1OCC(O)CNC(C)C (centres undefined)	–	inconclusive [inhibitor, partial curve, poor fit]	–
CC/C=C\CCc1c(-c2ccccc2)ncn1CCN1CCN(C)CC1	–	inconclusive [inhibitor, single point]	–
COc1cc(OC)cc(N2C(=O)[C@@H]3C[C@@H](NC(=O)c4cccs4)CCN3C2=O)c1	–	inconclusive [inhibitor, partial curve, poor fit]	–
CSCCNC(=O)C1CCN(c2nccc(Nc3ccccc3F)n2)CC1	–	inconclusive [inhibitor, single point]	–
CN(C)c1ccc(/C=C2\C(=O)Nc3ccccc32)cc1	–	inconclusive [inhibitor, partial curve, poor fit]	–
CCc1cccc(NC(=O)Cn2c(N(C)Cc3ccccc3)nc(C)cc2=O)c1	inactive: -4.59%	–	–
CCCCc1nc2cc(C=CC(=O)NO)ccc2n1CCN(CC)CC	–	inconclusive [inhibitor, single point]	–
Cn1ccnc1C(=O)N1CCCCCNC(=O)[C@H]2C[C@H](C(=O)N3CCc4ccccc4C3)C[C@H]21	–	inconclusive [inhibitor, partial curve]	–
COc1ccc(-c2cc(N3CCCN(C(=O)c4cccc(Cl)c4)CC3)n[nH]2)cc1	–	inconclusive [inhibitor, partial curve]	–
CC(C)NC(=O)c1cc(-c2ccc(F)cc2)cn1C	inactive: -0.581%	–	–
COc1ccc(CN2CC(CNc3ccccc3)C3(C2)CN(c2ccccc2)C3)cc1O (centres undefined)	–	inconclusive [inhibitor, single point]	–
CN(c1cc(=O)c2ccnc(-c3ccc(O)c(F)c3)c2o1)C1CCOCC1	–	inconclusive [inhibitor, partial curve, poor fit]	–
CCN1/C(=C/C(C)=O)Sc2ccc(OC)cc21	–	inconclusive [inhibitor, single point]	–
CN(C)C(=O)C1CN(C(=O)COc2ccccc2)CC12CCOCC2 (centres undefined)	–	inconclusive [inhibitor, full curve]	–
COC1CCOC2(CCN(C(=O)c3ccsc3)CC2)C1 (centres undefined)	–	–	inactive
COc1cc(O)c(C(=O)CCc2ccc(O)cc2)c(O[C@@H]2O[C@H](CO)[C@@H](O)[C@H](O)[C@H]2O)c1	–	inconclusive [inhibitor, partial curve, poor fit]	–
COc1ccc2nc3cc(Cl)ccc3c(Nc3cc(CN4CCCC4)c(O)c(CN4CCCC4)c3)c2n1	–	inconclusive [inhibitor, single point]	–
